Article PMC6919601, “Identification of Plasmodium dipeptidyl aminopeptidase allosteric inhibitors by high throughput screening” (PLoS ONE, 2019)
In all, about 110,000 compounds went through this assay and about 230 (0.21%) showed an effect of 50% or more. This is one part of the list.

target: DPAP1 (Plasmodium falciparum, UniProt Q8IIJ9); experiment: primary screen, percent inhibition; read by cleavage of a fluorogenic dipeptide substrate; higher = more effect of the substance; parameters: species or system P. falciparum D10 trophozoite lysates; single well
Sequence (Q8IIJ9 whole entry, looked up): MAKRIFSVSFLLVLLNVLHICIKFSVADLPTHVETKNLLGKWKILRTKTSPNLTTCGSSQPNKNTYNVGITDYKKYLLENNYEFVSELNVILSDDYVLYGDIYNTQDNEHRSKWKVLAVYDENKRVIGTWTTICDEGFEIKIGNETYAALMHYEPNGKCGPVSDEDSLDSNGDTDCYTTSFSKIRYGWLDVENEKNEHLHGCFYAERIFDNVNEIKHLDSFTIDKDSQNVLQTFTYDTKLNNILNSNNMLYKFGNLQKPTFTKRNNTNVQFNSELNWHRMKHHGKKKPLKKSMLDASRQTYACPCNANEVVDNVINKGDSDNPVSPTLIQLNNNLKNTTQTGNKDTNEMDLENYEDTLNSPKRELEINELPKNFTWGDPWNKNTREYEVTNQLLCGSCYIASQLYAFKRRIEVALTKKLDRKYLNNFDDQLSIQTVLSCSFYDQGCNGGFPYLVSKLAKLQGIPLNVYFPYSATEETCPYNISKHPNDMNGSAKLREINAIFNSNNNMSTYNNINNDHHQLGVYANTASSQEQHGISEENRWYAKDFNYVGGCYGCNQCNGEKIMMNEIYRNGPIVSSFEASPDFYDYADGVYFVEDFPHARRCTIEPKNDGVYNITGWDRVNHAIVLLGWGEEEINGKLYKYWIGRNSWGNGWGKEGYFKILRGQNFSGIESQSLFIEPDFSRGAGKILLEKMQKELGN
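Note: 30 min substrate incubation versus DMSO and 10 µM JCP410 controls.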

SMILES | % Inhibition @ 10 uM [%]
CC(C)(C)Nc1nc(-c2ccccc2O)nc2ccccc12 | -2.19
CCCC1CCC(c2ccc(C#N)c(O)n2)CC1 (stereo not drawn) | -3.44
COc1cc(/C=C2\C=C(c3ccc(Cl)cc3)OC2=O)cc(Br)c1OC | 3.72
CC1(C)Oc2ccc3ccc(=O)oc3c2C/C1=N\O | 0.467
CN1CCN(C(=O)c2ccccc2N(Cc2ccccc2)S(C)(=O)=O)CC1 | -3.68
CCCOc1ccc(C2C(=O)N(C3CCCCC3)CC(=O)N2Cc2ccccc2)cc1OC (stereo not drawn) | -7.73
COc1ccc(/C=C2\CS/C(=C\c3ccc(OC)c(OC)c3)C2=O)cc1OC | 5.74
Cc1nc(SCc2cccnc2)c(C#N)cc1C(=O)O | 4.47
CC(NC(=O)Cc1nn[nH]n1)c1ccccc1 (stereo not drawn) | -5.93
Nc1c2c(nc3ccccc13)N(Cc1ccccc1)CC2 | -4.21
c1ccc(N(c2ccccc2)c2nc(N3CCOCC3)nc(N3CCOCC3)n2)cc1 | 0.968
O=C(NS(=O)(=O)c1ccc(Cl)s1)c1ccccc1 | -3.33
COCCNC(=O)CCNS(=O)(=O)c1ccc(C)cc1 | -0.256
CCO/C(O)=C1\C(C)=NC(C)=C(C(=O)OC)C1c1ccc([N+](=O)[O-])cc1 (stereo not drawn) | 1.43
Cc1cc(C)cc(CC(C(=O)NCc2ccccc2)C(C)C(=O)O)c1 (stereo not drawn) | 12.9
COc1cc(CNC(C)c2ccccc2)cc(Cl)c1OCC(N)=O (stereo not drawn) | -2.74
Cc1ccc(-c2onc(C)c2C)cc1S(=O)(=O)N1CCC(N2CCCCC2)CC1 | -2.81
COc1ccc(S(=O)(=O)N2CCN(c3ccc(C)cc3C)CC2)c2ccccc12 | -2.66
O=c1oc2ccccc2c(NCc2ccccc2)c1CN1CCCCC1 | 1.42
COc1ccc(C2C(C(=O)Nc3ccccc3C)=C(C)Nc3nc(CCCO)nn32)cc1OC (stereo not drawn) | -3.39
N#CC1=C(N)Oc2[nH]nc(-c3cccc4ccccc34)c2C1c1cccc(O)c1 (stereo not drawn) | 0.562
CC(C)CCn1c(=O)c2ccccc2n2c(CCC(=O)NCCCN3CCOCC3)nnc12 | 3.54
CCOC(=O)c1nnc(S)nc1O | -5.37
C=CCNC(=O)c1c(NC(=O)COc2ccccc2)sc2c1CCCC2 | -1.52
C=CCNC(=O)c1c(NC(=O)c2ccco2)sc2c1CCC(C(C)(C)C)C2 (stereo not drawn) | -2.8
COc1ccc(-c2nnc3n2N=C(c2ccc(Br)s2)CS3)cc1 | 2.89

SMILES | % Inhibition @ 10 uM [%]
CCOC(=O)c1c(NC(=O)c2ccccc2C(=O)O)sc(C)c1C | 6.89
Cc1nc2c(Cl)cccc2c2c1CC(C(C)(Cl)Br)O2 (stereo not drawn) | 2.05
CCCN(CCC)Cc1c(C(=O)O)nnn1-c1nonc1N | 3.25
CN(C)S(=O)(=O)c1ccc(S(=O)(=O)N2CCC3(CC2)OCCO3)cc1 | 4.18
CCCCn1c(-c2ccccc2)nc2c(sc3nc(C)cc(COC)c32)c1=O | 1.76
COc1cc(C2C3=C(O)CCCC3=NC(C)=C2C(=O)N2CCCCC2)ccc1OCc1ccccc1 (stereo not drawn) | -5.05
CCc1ccc(/C=C(\C#N)c2nc(-c3ccccc3)cs2)cc1 | -3.44
CC(NC(=O)Cn1cnc2c1c(=O)n(C)c(=O)n2C)c1ccccc1 (stereo not drawn) | 1.27
c1ccc(-c2c(-c3ccccc3)n(Cc3ccco3)c3ncnc(NCCCn4ccnc4)c23)cc1 | 1.96
CCOCCCNC(=O)c1ccc(N(C)S(C)(=O)=O)cc1 | 6.7
COc1ccc(-c2nc3n(n2)C(c2cccnc2)C2=C(O)CCCC2=N3)cc1 (stereo not drawn) | 0.275
Cc1ccc(OCCSc2nc3ccccc3n2CC(=O)O)cc1 | 5.6
Cc1ccccc1C(=O)Nc1sc2c(c1C(=O)N(C)C)CCCCC2 | 4.83
O=C(NCc1cccnc1)c1ccc(CS(=O)c2cccc(Cl)c2)o1 (stereo not drawn) | 1.5
CCN(CC)CCOc1cc(C)ccc1C | -4.01
CCCS(=O)(=O)N1CCCC(C(=O)NC2CCC(C)CC2)C1 (stereo not drawn) | -0.0542
COc1cc2c(cc1OC)C(C(=O)N1CCCCCC1)C1c3ccccc3CCN1C2=O (stereo not drawn) | 3.53
CCO/C(O)=C/C1=NCCNC1=O | -1.18
Cc1sc2nc(SC/C=C/c3ccccc3)nc(N)c2c1C | -9.24
O=C(NC1CCCCC1)C1CCN(S(=O)(=O)c2ccc3[nH]c4c(c3c2)CCCCC4)CC1 | -1.34
COC(=O)C1=C(O)/C(=C\c2cc(C)n(-c3ccc(OC)c(Cl)c3)c2C)N=C1C | 6.58
COc1ccc(/C=c2/sc3nc4cc(Br)cnc4n3c2=O)c(OC)c1 | 10.9
O=C(NCc1ccc(Cl)cc1)c1cc(-c2ccccc2O)on1 | 3.55
O=C(Nc1cccc(Cl)c1)c1ccc([N+](=O)[O-])o1 | -4.11
C=C1N(C2CCCCC2)C(=O)OC12CCCCC2 | 2.45
COc1cccc2cc(CC(=O)O)oc12 | 3.04

SMILES | % Inhibition @ 10 uM [%]
CCCCn1c2ccccc2n2cc(-c3ccc4c(c3)OCO4)nc12 | 3.74
CCOc1cc(C#N)c(NC(=O)c2cccc(OC)c2)cc1OCC | -3.09
COc1cccc(CNC(=O)C(C)Nc2nn3c(=O)cc(C)nc3s2)c1 (stereo not drawn) | 0.0882
O=C(NCCc1cccs1)c1sc2ccccc2c1Cl | 3.68
COc1ccc(C(=O)Nc2ccc(Cl)cc2C(=O)N2CCCCC2CCO)cc1 (stereo not drawn) | 0.205
COc1ccc(C(=O)CSc2n[nH]c(C)n2)cc1C | -2.87
CS(=O)(=O)N1CCn2c(nc3ccccc32)C1 | 1.9
CCc1ccc(OCCNC(=O)OCc2ccccc2)cc1 | -3.43
COc1ccc(C2C(C#N)=C(N)OC3=C2C(=O)CCC3)cc1COc1ccc(Cl)cc1 (stereo not drawn) | 4.75
CCOC(=O)N1CCN(S(=O)(=O)N2CCCC(C(=O)NCCc3ccc(C)cc3)C2)CC1 (stereo not drawn) | -3.12
COc1ccc(S(=O)(=O)NCCc2c(C)[nH]c3c(Cl)cccc23)cc1C | -2.66
CCN1CCC(N2CCN(C)CC2)CC1 | 3.44
CCCNC(=O)CCCOc1ccc(Cl)cc1Cl | 0.247
COc1ccc(CCNCc2ccccc2C(F)(F)F)cc1OC | 4.55
O=C(Cn1ncc2c1-c1ccccc1OC2)N1CCN(c2ccccn2)CC1 | -1.66
O=P1(c2ccccc2O)COc2ccccc2OC1 | -2.91
O=S(=O)(NC1CCCCC1N1CCC(O)CC1)c1ccccc1 (stereo not drawn) | 1
O=C(Nc1ccc(Br)cc1)c1nc2nc(-c3ccccc3)cc(C(F)(F)F)n2n1 | 1.87
O=C(Cn1ncc2c3ccccc3nc-2c1O)Nc1nccs1 | -3.99
CC(C)c1nnc(NC(=O)CC(NC(=O)c2ccccc2)c2ccccc2)s1 (stereo not drawn) | -2.87
O=C(c1ccccc1Cl)N1CCn2c1nc1ccccc12 | 3.63
CC(C(=O)c1ccccc1)N1C(=O)c2ccccc2C1=O (stereo not drawn) | 6.63
Cc1sc2ncnc(NC3CCCCC3)c2c1C | 1.76
CC(C)C(=O)Nc1ccc(Oc2ccc(NC(=O)C(C)C)cc2)cc1 | 0.795
CC(C)(C)c1ccc(S(=O)(=O)N2CCC(n3c(O)nc4ccccc43)CC2)cc1 | 2.62
Cc1nn(-c2ccccc2)c(O)c1/C=N/c1nc2ccc(Cl)cc2s1 | -0.413

SMILES | % Inhibition @ 10 uM [%]
COc1ccc(-n2nc3c(c2NC(=O)c2cccc(OC)c2OC)CS(=O)(=O)C3)cc1 | 9.87
COc1cc(-c2cc(/N=C(/NCc3ccco3)SC)[nH]n2)cc(OC)c1OC | -2.28
O=C1CC(c2ccccc2)NC(SCC(=O)NCc2ccccc2)=N1 (stereo not drawn) | -8.7
CCOC(=O)C1=C(CC)OC(N)=C(C#N)C1c1ccc(NC(C)=O)cc1 (stereo not drawn) | 3.54
O=C(/C=C(\O)C(F)(F)C(=O)/C=C(\O)c1ccccc1)c1ccccc1 | -2.47
Cc1nc(SC2CC(=O)N(c3ccccc3)C2=O)nc2c1CCCC2 (stereo not drawn) | 8.49
Fc1ccc(N2CCN(C3CCN(Cc4ccccc4)CC3)CC2)cc1 | 3.28
N#CC1=C(N)SC(N)=C(C#N)C1c1ccccc1 | 70.9
Cc1ccc(O)c(C(=O)/C=C/N2CCCCC2)c1 | 12.8
Cc1cc(C)cc(Oc2ncnc3sc4c(c23)CCCC4)c1 | -1.05
COc1cccc(CNC(=O)Cn2ncc3c4ccccc4n(Cc4ccccc4F)c3c2=O)c1 | -1.58
CC(=O)Nc1sc2c(c1C(=O)Nc1cccc3ccccc13)CCCC2 | 2.43
COCCNC(=O)Cn1ncn2c(cc3ccccc32)c1=O | -1.92
COc1ccccc1OCC(=O)Nc1ccccc1C(=O)Nc1ccccc1 | 2.42
Cc1ccc(S(=O)(=O)Nc2cccc3cccnc23)cc1 | -5.5
CCCOc1ccc2nc(C)c(CCC)c(Cl)c2c1 | -1.99
O=[N+]([O-])c1ccc(CN2CCC(O)CC2)o1 | -0.969
CC(C)CC(C(=O)NCC#N)c1cccc(-c2ccc(C3(O)CCN(C=O)CC3)cc2)c1 (stereo not drawn) | 3.19
Clc1ccc(-c2cnnn2-c2nonc2-n2cccc2)cc1 | 7.99
Cc1cc(S(=O)(=O)NC2CC(C)(C)NC(C)(C)C2)c(Cl)cc1Cl | 0.245
CCOc1ccc(N(C(C)C(=O)Nc2cccc(Br)c2)S(C)(=O)=O)cc1 (stereo not drawn) | 2.54
Cc1ccc(CNC(=O)c2ccc3c(c2)c(C)c(C)n3Cc2ccc(F)cc2)o1 | -4.52
CC(=O)c1cnc(S)nc1O | -7.62
COCCN1C(=O)/C(=C/c2ccccc2C)S/C1=N\c1ccccc1 | -7.21
